Measured values taken from the supplement of paper PMC3334620.
In all, about 33,000 sequences were measured (“E-score (-0.5 to 0.5)”: median about -0.012, highest 2% from about 0.27 on). This is one part of the list.

Target: T1, Vhr1 (UniProt P40522)
T1 sequence: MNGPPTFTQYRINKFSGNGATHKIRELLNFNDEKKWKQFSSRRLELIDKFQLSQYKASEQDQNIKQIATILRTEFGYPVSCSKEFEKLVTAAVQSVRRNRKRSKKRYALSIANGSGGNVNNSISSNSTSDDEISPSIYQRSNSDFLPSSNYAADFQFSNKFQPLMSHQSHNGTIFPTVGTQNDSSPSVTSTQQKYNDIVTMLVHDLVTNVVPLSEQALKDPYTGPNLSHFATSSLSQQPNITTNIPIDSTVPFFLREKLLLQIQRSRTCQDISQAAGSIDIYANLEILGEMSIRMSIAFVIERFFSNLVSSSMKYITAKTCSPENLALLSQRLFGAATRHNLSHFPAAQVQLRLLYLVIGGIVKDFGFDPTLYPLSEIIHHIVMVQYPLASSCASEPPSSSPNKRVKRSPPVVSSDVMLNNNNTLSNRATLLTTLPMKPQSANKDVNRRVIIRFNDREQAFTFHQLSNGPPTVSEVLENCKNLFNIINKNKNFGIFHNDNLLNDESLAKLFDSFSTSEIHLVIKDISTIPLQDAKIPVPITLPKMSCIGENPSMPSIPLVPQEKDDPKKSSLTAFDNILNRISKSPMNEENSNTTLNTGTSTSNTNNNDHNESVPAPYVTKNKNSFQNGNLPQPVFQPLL
Assay: PBM E-score (8-mer binding enrichment) (E-score (-0.5 to 0.5)); higher = stronger / more preferred TF binding; most listed sequences are background and not binding sites
Settings: protein concentration: 200 nM; construct: GST-full length
Method: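 Universal 'all 10-mer' protein binding microarrays (Agilent AMADID 015681) probed with GST-tagged S. cerevisiae TFs (full-length or DBD) made by in vitro transcription/translation (PURExpress), about 100-200 nM. Bound TF was detected with fluorescent anti-GST. Each ungapped 8-mer (which stands for itself and its reverse complement) is scored by the PBM enrichment score (E-score), a modified Wilcoxon-Mann-Whitney statistic from -0.5 to +0.5, computed with the Universal PBM Analysis Suite. Scale: above 0.35 generally sequence-specific binding.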

In order of falling “PBM E-score” value:
1. ACTACTAT  0.325
2. GTCACACA  0.303
3. AATCAACA  0.303
4. CACACATG  0.245
5. GCGAGTCC  0.22
6. AGCCGGAC  0.217
7. ATCAACAC  0.214
8. TCGTGGAA  0.211
9. ATACTAAC  0.208
10. ATATGTGA  0.206
11. ACGGCTCA  0.193
12. TATCATGA  0.189
13. CCGTGCGA  0.181
14. GACCCGAC  0.168
15. ACGAGTAA  0.163
16. GAGTAATA  0.162
17. GACTCGAA  0.161
18. GGTGTGAA  0.151
19. TCTAGACA  0.147
20. TATCTCAA  0.147
21. ATAGTAGG  0.138
22. CCATTAAC  0.135
23. AACCGATA  0.135
24. AGTTGGAT  0.127
25. AGTTACAC  0.125
26. ACCATGGC  0.119
27. GACCCGGC  0.112
28. ATAACTGA  0.111
29. ACCTCGGA  0.107
30. AACGTCAT  0.104
31. CTACCCAC  0.0974
32. AGACTCTC  0.0937
33. CTCCGGGA  0.087
34. GTAAAGTA  0.0862
35. CATCTGCG  0.0859
36. GCGGCACA  0.0855
37. CCACTGCA  0.0851
38. CTGTGCGC  0.0828
39. CTCGCTGC  0.08
40. GGCAATAC  0.0785
41. ACGTGCTC  0.0758
42. ACACCTGC  0.0726
43. GGGCGGAC  0.0707
44. CGAGATTA  0.0687
45. ATTTATAC  0.067
46. AGACCCTG  0.0628
47. AGACCTAC  0.0604
48. ACCTTATA  0.0589
49. CCAACCCG  0.0536
50. ACATTACT  0.0527
51. ATTCCCTC  0.0523
52. CTGTCGCC  0.0514
53. AACATGCA  0.0505
54. CTCGGCCA  0.0475
55. CGCCTGGA  0.0443
56. GATCACCC  0.0378
57. AGCATCAA  0.0321
58. GCAGGATA  0.0299
59. AAGCGGGT  0.0277
60. ACCTACTG  0.0266
61. ACACCGTG  0.0265
62. CGACATAC  0.026
63. CGTTACTC  0.0257
64. TCAACAGA  0.0252
65. AGGTTCAA  0.0239
66. AGATGCGA  0.0238
67. ACGTACTG  0.0216
68. CTTCATAC  0.0213
69. CGAGACCG  0.02
70. ATAGGCAT  0.0131
71. AAAGTTTG  0.0115
72. ATGTATTC  0.00908
73. CCGGTTGC  0.00903
74. CCAAACGG  0.00351
75. CTTATCCA  0.00295
76. AACTCCTG  0.00206
77. CAGAATCG  0.00203
78. GTCCAACA  0.00179
79. CACTTTGG  -0.00024
80. ACCGTGCC  -0.00252
81. CGTGGATC  -0.004
82. TCCTGTAA  -0.00405
83. GCTCAGTA  -0.0102
84. CACTTGTC  -0.0138
85. GCACGACC  -0.0187
86. CTAGCCGA  -0.02
87. ACATCTAG  -0.0202
88. CTTATTAC  -0.0243
89. GATTTGCA  -0.0259
90. CCGACAAG  -0.0285
91. TAATCGAA  -0.0316
92. GCGCCTCC  -0.0327
93. GCGAAAAA  -0.0346
94. AATGGCGA  -0.0361
95. AAGAAGCC  -0.0405
96. CGCAGGTA  -0.0452
97. CAAGATGG  -0.0455
98. ACCTCCTA  -0.0455
99. TGGCACAA  -0.0601
100. TAACTCCA  -0.0608
101. CTTCACAC  -0.063
102. TCGATAAA  -0.0638
103. AGACGGCC  -0.064
104. CGTTTTGA  -0.0651
105. ACGTCCGG  -0.0653
106. AGGGGTTA  -0.066
107. ATACAGCG  -0.0674
108. CTGCGAGA  -0.0679
109. GAACAGAA  -0.0693
110. CAAATTGG  -0.0706
111. ACCTAGAA  -0.0713
112. GAGAGCGA  -0.0723
113. GGTTTTAA  -0.0733
114. GATGGCGC  -0.0762
115. GAGCTCTA  -0.0777
116. CCTAGCTC  -0.0792
117. GCCTTCAC  -0.0812
118. ATATAGAG  -0.0818
119. AGTCCCGA  -0.0853
120. CCATCCCG  -0.0862
121. GTTGAAAC  -0.0891
122. CAAGTGTC  -0.0895
123. CTGTCAAA  -0.0913
124. GTGCTTTA  -0.096
125. ACGTATCG  -0.096
126. CCAATGTA  -0.0965
127. CTTATAAC  -0.103
128. ACATTAGA  -0.105
129. CGTGCACC  -0.108
130. CCCGGGCG  -0.11
131. AACGATAG  -0.11
132. CGTTGCAG  -0.111
133. CCAGTGGA  -0.118
134. AGTGGAAA  -0.12
135. AACCAGAG  -0.123
136. AATTCGTA  -0.124
137. AATTGGCC  -0.13
138. TAATTCAA  -0.137
139. AGTTGAAA  -0.138
140. CGGAATTC  -0.141
141. CACGTAGG  -0.143
142. AGTTAGGC  -0.144
143. CCAAGAGA  -0.148
144. TACCTAAA  -0.155
145. GGCTTGAA  -0.155
146. AAAAGATA  -0.16
147. ATCGGGCC  -0.16
148. CATCTAAG  -0.161
149. AAATGGGA  -0.161
150. ACTGCTGG  -0.162
151. CAGAAGCA  -0.165
152. GGGGAGAA  -0.168
153. CCTTTGCC  -0.17
154. CTTATGGC  -0.172
155. CGCAGTGC  -0.174
156. CTGAAAGA  -0.175
157. CCTAATAG  -0.176
158. CCCTCTCC  -0.179
159. ACGTAAGA  -0.179
160. GACGGCAC  -0.18
161. GCCTTCGA  -0.181
162. CTTGAGCC  -0.217
163. CGCCCCCC  -0.218
164. CCTTAAGA  -0.224
165. AAGCAGAC  -0.229
166. ACAATTCA  -0.233
167. AAGACCGT  -0.235
168. ACGCTGAA  -0.238
169. CCGGTTAA  -0.24
170. GCCTTCCA  -0.281
171. GGGCTTTA  -0.295
172. AGCGAGAA  -0.322
